Here are results for 13 compounds from the antibiotic and cytotoxicity screens of Wong et al. (2023).

Each structure is given as a SMILES string. The list shows a part of the results.

This test deals with HepG2. The test is described as follows: cytotoxicity call (relative viability < 0.9). The following applies: 10 µM.
As to `Cn1c(=O)c2c(nc(Sc3nnc(N)s3)n2C)n(C)c1=O`, the cytotoxicity call is “inactive”.

`CNc1nc(N2CCCC2)nc(N)c1[N+](=O)[O-]`: the cytotoxicity call is “inactive”.

Take `C[C@@H]1CCCCO[C@H](CN(C)C(=O)c2ccccc2)[C@@H](C)CN([C@H](C)CO)C(=O)c2cc(NC(=O)Cc3ccccc3)ccc2O1`: the cytotoxicity call was “inactive”.

`C[C@@H]1CN([C@@H](C)CO)C(=O)c2cc(C#Cc3cccc(F)c3)cnc2O[C@H]1CN(C)C(=O)C1CCOCC1`: the cytotoxicity call is “inactive”.

For the compound `C[C@H](CO)N1C[C@H](C)[C@@H](CN(C)S(=O)(=O)c2ccc(Cl)cc2)Oc2ccc(N(C)C)cc2C1=O`, the cytotoxicity call was “inactive”.

As to `COc1ccc(CN(C)C[C@@H]2OCCCC[C@H](C)Oc3ccc(NS(=O)(=O)c4ccc(F)cc4)cc3C(=O)N([C@@H](C)CO)C[C@H]2C)cc1`, the cytotoxicity call was “inactive”.

Consider `c1cc(CNC2CCCC2)cs1`, for which the cytotoxicity call was “inactive”.

In the case of `COc1ccc(NC(=O)N(C)C[C@H]2Oc3ccc(NC(=O)Cn4cnnn4)cc3C(=O)N([C@@H](C)CO)C[C@H]2C)cc1`, the cytotoxicity call was “inactive”.

In the case of `CN1CCN(C(=O)C[C@H]2CC[C@@H](NC(=O)Cc3ccccn3)[C@H](CO)O2)CC1`, the cytotoxicity call is “inactive”.

`CN(C)CCN1CCN(C)C2(CCN(S(=O)(=O)C3CC3)CC2)C1=O`: the cytotoxicity call was “inactive”.

Regarding `Cc1noc(C)c1NC(=O)N(C)C[C@@H]1Oc2ccc(NS(=O)(=O)c3c(C)noc3C)cc2C(=O)N([C@@H](C)CO)C[C@H]1C`, the cytotoxicity call is “inactive”.

Regarding `COc1ccc(NC(=O)Nc2ccc3c(c2)CC(=O)N([C@H](C)CO)C[C@@H](C)[C@@H](CN(C)S(=O)(=O)c2cn(C)cn2)O3)cc1`, the cytotoxicity call is “inactive”.

For `COc1ccc(NC(=O)Nc2ccc3c(c2)C(=O)N([C@H](C)CO)C[C@@H](C)[C@@H](CN(C)Cc2ccc4c(c2)OCO4)OCCCC[C@H](C)O3)cc1`, the cytotoxicity call is “inactive”.
